Test results: PubChem BioAssay (Tox21)
“And” between values parts separate entries of the source, which are not always exact repeats. Identical values can stand only once. This list was built around the results that the source calls inconclusive (neither active nor inactive); the mix of calls is not that of the screen. For some assays here: A potency beside an inconclusive call is a rough fit, not a confirmed value. The source made the active and inactive calls. Unless noted, the call rests on the fitted dose curve; in most records, active means well fitted curve in the direction sought with a large enough effect in the repeat runs; inconclusive means weak or mixed curves; inactive means no such curve, though single readings can be large; an effect the other way counts as inactive or inconclusive.

Key:
[1] = qHTS assay to identify aromatase inhibitors - cell viability counter screen (AID 743084); conditions: MCF-7 aro ERE viability, CellTiter-Fluor, 24 h; activity change, negative = cytotoxicity: at 70.3 µM (top of the series);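 further: cells stimulated with testosterone during compound exposure; nearly all actives have a fitted effect of over 55% in size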; further: potency means the concentration at half of the fitted maximal effect; on activity change, negative = cytotoxicity: on the % scale 0 is the no-effect control and ±100 the full control effect
[2] = target: Peroxisome proliferator-activated receptor gamma (Homo sapiens) (UniProt P37231); assay: qHTS assay to identify small molecule agonists of the peroxisome proliferator-activated receptor gamma (PPARg) signaling pathway (AID 743094; active means well fitted activation curve with a large enough effect in the signal ratio in the repeat runs, not every such curve was filed as active; inconclusive means weak or mixed curves, or effect the other way; inactive means no such curve, though single readings can be large or run the other way; the % refers to the signal ratio; further: on the % scale 0 is the no-effect control and ±100 the full control effect); conditions: HEK293H PPARg-UAS-bla, beta-lactamase FRET ratio, 17 h; activation: at 57 µM (top of the series) unless noted
Outline: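 Beta-lactamase FRET fluorescence was the read-out after a 1 h room-temperature substrate step, following 17 h compound treatment at 37C of HEK293H cells expressing a UAS-driven bla reporter responsive to PPARg.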

[3] = target: Peroxisome proliferator-activated receptor gamma (Homo sapiens) (UniProt P37231); assay: qHTS assay to identify small molecule antagonists of the peroxisome proliferator-activated receptor gamma (PPARg) signaling pathway (AID 743191; calls by dose curve; further: nearly all actives have a fitted effect of over 30% in size; further: potency means the concentration at half of the fitted maximal effect; on ratio activity, negative = inhibition: on the % scale 0 is the no-effect control and ±100 the full control effect); conditions: HEK293H PPARg-UAS-bla, beta-lactamase ratio, antagonist, 17 h; ratio activity, negative = inhibition: at 62.6 µM (top of the series) unless noted
Outline: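 GeneBLAzer PPARg UAS-bla HEK293H cells, 5 h post-plating, exposed to compounds 17 h at 37C. LiveBLAzer B/G FRET substrate added for 1 h at room temperature; beta-lactamase reporter read by fluorescence intensity.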

[4] = qHTS assay to identify small molecule antagonists of the peroxisome proliferator-activated receptor gamma (PPARg) signaling pathway - cell viability counter screen (AID 743194); conditions: PPARg-bla HEK293H viability, CellTiter-Glo luminescence, 17 h, co-treated with 50 nM rosiglitazone; activity change, negative = cytotoxicity: at 62.6 µM (top of the series); further: potency means the concentration at half of the fitted maximal effect; nearly all actives have a fitted effect of over 55% in size
Outline: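 Cytotoxicity counter screen in PPARg-bla HEK293H cells, same wells as reporter assay. Compounds plus 50 nM rosiglitazone (final) for 17 h at 37 C, then viability read by CellTiter-Glo luminescence.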

[5] = qHTS assay for small molecule agonists of the antioxidant response element (ARE) signaling pathway (AID 743202; active means well fitted activation curve with a large enough effect in the signal ratio in the repeat runs, not every such curve was filed as active; inconclusive means weak or mixed curves, or effect the other way; inactive means no such curve, though single readings can be large or run the other way; the % refers to the signal ratio; further: potency means the concentration at half of the fitted maximal effect); conditions: HepG2 ARE-bla reporter, beta-lactamase FRET, 16 h
Outline: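 Agonist mode reporter screen: HepG2 cells with ARE-controlled beta-lactamase are incubated with test compounds for 16 h at 37 C, and beta-lactamase activity is measured as fluorescence of cleaved B/G FRET substrate.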

[6] = qHTS assay for small molecule activators of the heat shock response signaling pathway (AID 743210; active means well fitted activation curve with a large enough effect in the signal ratio in the repeat runs, with a control signal flat, not every such curve was filed as active; inconclusive means weak or mixed curves; the % refers to the signal ratio; further: potency means the concentration at half of the fitted maximal effect); conditions: HeLa HSE-bla reporter, beta-lactamase ratio, 5 h; activation: at 62.6 µM (top of the series)
Outline: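 Quantitative high-throughput format using an engineered HeLa line in which heat shock response elements drive beta-lactamase; after 5 h with compound, cells received a B/G FRET substrate and fluorescence was read.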

[7] = qHTS assay to identify small molecule agonists of the peroxisome proliferator-activated receptor delta (PPARd) signaling pathway - cell viability counter screen (AID 743211); conditions: PPARd-bla HEK293H viability, CellTiter-Glo luminescence, 17 h; activity change, negative = cytotoxicity: at 62.6 µM (top of the series); further: potency means the concentration at half of the fitted maximal effect; nearly all actives have a fitted effect of over 55% in size
Outline: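 Viability was measured as CellTiter-Glo luminescence (30 min, room temperature) in the same wells as the beta-lactamase readout. GeneBLAzer PPARd UAS-bla HEK293H cells received compound after 5 h plating and were incubated 17 h at 37 C.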

[8] = target: Peroxisome proliferator-activated receptor delta (Homo sapiens) (UniProt Q03181); assay: qHTS assay to identify small molecule antagonists of the peroxisome proliferator-activated receptor delta (PPARd) signaling pathway (AID 743215; active means well fitted inhibition curve with a large enough effect in the signal ratio in the repeat runs, not every such curve was filed as active; inconclusive means weak or mixed curves, or effect the other way; inactive means no such curve, though single readings can be large or run the other way; the % refers to the signal ratio;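 further: cells stimulated with agonist L165041 at 300 nM final during compound exposure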; further: potency means the concentration at half of the fitted maximal effect; on ratio activity, negative = inhibition: on the % scale 0 is the no-effect control and ±100 the full control effect); conditions: HEK293H PPARd-UAS-bla, beta-lactamase FRET ratio, antagonist, 17 h; ratio activity, negative = inhibition: at 62 µM (top of the series) unless noted
Outline: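 Read-out is beta-lactamase FRET fluorescence, measured 2 h after substrate addition at room temperature. Beforehand, UAS-bla HEK293H cells carrying the PPARd reporter were exposed to compounds with L165041 at 300 nM final for 17 h at 37 C.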

[9] = qHTS assay to identify small molecule agonists of the farnesoid-X-receptor (FXR) signaling pathway - cell viability counter screen (AID 743218); conditions: FXR-bla HEK293T viability, CellTiter-Glo luminescence, 16 h; viability change, negative = cytotoxic: at 62.6 µM (top of the series) unless noted; further: nearly all actives have a fitted effect of over 45% in size; further: potency means the concentration at half of the fitted maximal effect
Outline: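 HEK 293T FXR-bla cells; 5 h pre-incubation, 16 h compound exposure at 37 C; LiveBLAzer substrate 2 h RT, then CellTiter-Glo 30 min RT, luminescence.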

[10] = target: Bile acid receptor (Homo sapiens) (UniProt Q96RI1); assay: qHTS assay to identify small molecule agonists of the farnesoid-X-receptor (FXR) signaling pathway (AID 743220; active means well fitted activation curve with a large enough effect in the signal ratio in the repeat runs, not every such curve was filed as active; inconclusive means weak or mixed curves, or effect the other way; the % refers to the signal ratio; further: potency means the concentration at half of the fitted maximal effect); conditions: HEK293T FXR-UAS-bla, beta-lactamase FRET ratio, 16 h; activation: at 62.6 µM (top of the series) unless noted
Outline: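 Beta-lactamase reporter under UAS control in GeneBLAzer FXR HEK 293T cells (5000/well) measured with LiveBLAzer FRET substrate after 2 h at room temperature. Compound exposure lasted 16 h at 37C.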

[11] = qHTS assay to identify small molecule antagonists of the farnesoid-X-receptor (FXR) signaling pathway - cell viability counter screen (AID 743221; active means well fitted cell-killing curve with a large enough effect in the repeat runs, not every such curve was filed as active; inconclusive means weak or mixed curves, or effect the other way; inactive means no such curve, though single readings can be large or run the other way; further: potency means the concentration at half of the fitted maximal effect; nearly all actives have a fitted effect of over 50% in size); conditions: FXR-bla HEK293T viability, CellTiter-Glo luminescence, 16 h; activity change, negative = cytotoxicity: at 62.6 µM (top of the series)
Outline: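 Cytotoxicity counter screen run in the FXR-bla reporter wells: HEK 293T cells exposed to compound with 50 uM (final) chenodeoxycholic acid for 16 h, 37 C, then viability measured by CellTiter-Glo luminescence after 30 min, room temperature.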

[12] = target: Vitamin D3 receptor (Homo sapiens) (UniProt P11473); assay: qHTS assay to identify small molecule agonists of the vitamin D receptor (VDR) signaling pathway (AID 743222; calls by dose curve; further: potency means the concentration at half of the fitted maximal effect); conditions: HEK293T VDR-UAS-bla, beta-lactamase FRET ratio, 16 h; activation: at 63.5 µM (top of the series) unless noted
Outline: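 VDR-bla cells, 2,000/well; 4 h preincubation 37C; cpd (DMSO) 16 h; LiveBLAzer B/G substrate 2 h RT; fluorescence intensity read.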

[13] = target: Vitamin D3 receptor (Homo sapiens) (UniProt P11473); assay: qHTS assay to identify small molecule antagonists of the vitamin D receptor (VDR) signaling pathway (AID 743223; active means well fitted inhibition curve with a large enough effect in the signal ratio in the repeat runs, not every such curve was filed as active; inconclusive means weak or mixed curves, or effect the other way; inactive means no such curve, though single readings can be large or run the other way; the % refers to the signal ratio; further: potency means the concentration at half of the fitted maximal effect); conditions: VDR-UAS-bla HEK293T, beta-lactamase FRET ratio, 16 h; activity change, negative = inhibition: at 61 µM (top of the series) unless noted
Outline: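 Antagonist mode: compound added to VDR-bla cells alongside agonist 1alpha,25-dihydroxyvitamin D3 (3 nM final), incubation 16 h at 37C. Read-out is LiveBLAzer FRET fluorescence, 2 h at room temperature.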

[14] = qHTS assay to identify small molecule antagonists of the peroxisome proliferator-activated receptor delta (PPARd) signaling pathway - cell viability counter screen (AID 743213); conditions: PPARd-bla HEK293H viability, CellTiter-Glo luminescence, 17 h; viability change, negative = cytotoxic: at 62 µM (top of the series) unless noted; further: nearly all actives have a fitted effect of over 50% in size; further: potency means the concentration at half of the fitted maximal effect
Outline: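 Viability counter-screen, qHTS format: PPARd-bla HEK293H, L165041 300 nM final, 17 h compound exposure at 37 C, CellTiter-Glo luminescence after 30 min RT.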

[15] = qHTS assay to identify small molecule that activate the aryl hydrocarbon receptor (AhR) signaling pathway - cell viability counter screen (AID 743086); further: potency means the concentration at half of the fitted maximal effect; nearly all actives have a fitted effect of over 45% in size
Outline: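 HepG2-AhR-luc (HG2L7.5c1) cells, 4000/well, treated 24 h at 37 C with compound; viability measured as CellTiter-Fluor fluorescence after 30 min in the same wells as the luciferase read.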

[16] = target: Peroxisome proliferator-activated receptor delta (Homo sapiens) (UniProt Q03181); assay: qHTS assay to identify small molecule agonists of the peroxisome proliferator-activated receptor delta (PPARd) signaling pathway (AID 743212; calls by dose curve; further: potency means the concentration at half of the fitted maximal effect); conditions: HEK293H PPARd-UAS-bla, beta-lactamase FRET ratio, 17 h; activation: at 62.6 µM (top of the series) unless noted
Outline: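 Quantitative high-throughput agonist screen in a HEK293H beta-lactamase reporter line under UAS control. Compounds in DMSO, at 37 C. Fluorescence read after 2 h with FRET substrate at room temperature.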

[17] = target: Bile acid receptor (Homo sapiens) (UniProt Q96RI1); assay: qHTS assay to identify small molecule antagonists of the farnesoid-X-receptor (FXR) signaling pathway (AID 743217; active means well fitted inhibition curve with a large enough effect in the signal ratio in the repeat runs, not every such curve was filed as active; inconclusive means weak or mixed curves, or effect the other way; inactive means no such curve, though single readings can be large or run the other way; the % refers to the signal ratio; further: potency means the concentration at half of the fitted maximal effect); conditions: HEK293T FXR-UAS-bla, beta-lactamase ratio, CDCA-stimulated, 16 h
Outline: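 HEK 293T FXR-UAS-bla, 5000 cells/well; compound + CDCA 50 uM final; 16 h, 37 °C; B/G FRET substrate 2 h RT; fluorescence.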

[18] = qHTS assay for small molecule activators of the heat shock response signaling pathway - cell viability counter screen (AID 743209); conditions: HSE-bla HeLa viability, CellTiter-Glo luminescence, 5 h; activity change, negative = cytotoxicity: at 62.6 µM (top of the series); further: potency means the concentration at half of the fitted maximal effect; nearly all actives have a fitted effect of over 50% in size
Outline: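 Luminescence from CellTiter-Glo, added after the beta-lactamase FRET read, gave the viability signal. Cells were HSE-bla HeLa treated with DMSO-dissolved compounds for 5 h at 37 C following overnight plating.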

[19] = activation: at 73.3 µM (top of the series) unless noted
[20] = activity change, negative = inhibition: at 62.6 µM (top of the series) unless noted
Tags describe the fitted curve by direction and shape or compound fluorescence and quenching.

Sequence of UniProt P37231 (P37231 whole entry, looked up): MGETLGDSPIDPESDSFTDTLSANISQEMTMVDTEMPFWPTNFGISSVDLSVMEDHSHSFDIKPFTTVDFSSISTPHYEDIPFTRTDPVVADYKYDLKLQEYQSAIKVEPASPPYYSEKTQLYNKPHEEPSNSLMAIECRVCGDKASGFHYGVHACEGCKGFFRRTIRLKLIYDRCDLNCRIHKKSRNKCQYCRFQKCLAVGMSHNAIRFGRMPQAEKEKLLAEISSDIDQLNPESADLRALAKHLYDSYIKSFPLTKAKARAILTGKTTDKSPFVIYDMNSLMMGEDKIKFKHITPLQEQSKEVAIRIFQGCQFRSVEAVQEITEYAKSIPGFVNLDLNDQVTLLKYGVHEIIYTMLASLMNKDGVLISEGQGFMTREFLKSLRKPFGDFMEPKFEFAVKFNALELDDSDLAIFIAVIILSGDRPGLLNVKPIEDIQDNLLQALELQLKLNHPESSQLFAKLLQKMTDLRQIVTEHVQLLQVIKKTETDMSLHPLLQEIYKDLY
Sequence of UniProt Q96RI1 (Q96RI1 whole entry, looked up): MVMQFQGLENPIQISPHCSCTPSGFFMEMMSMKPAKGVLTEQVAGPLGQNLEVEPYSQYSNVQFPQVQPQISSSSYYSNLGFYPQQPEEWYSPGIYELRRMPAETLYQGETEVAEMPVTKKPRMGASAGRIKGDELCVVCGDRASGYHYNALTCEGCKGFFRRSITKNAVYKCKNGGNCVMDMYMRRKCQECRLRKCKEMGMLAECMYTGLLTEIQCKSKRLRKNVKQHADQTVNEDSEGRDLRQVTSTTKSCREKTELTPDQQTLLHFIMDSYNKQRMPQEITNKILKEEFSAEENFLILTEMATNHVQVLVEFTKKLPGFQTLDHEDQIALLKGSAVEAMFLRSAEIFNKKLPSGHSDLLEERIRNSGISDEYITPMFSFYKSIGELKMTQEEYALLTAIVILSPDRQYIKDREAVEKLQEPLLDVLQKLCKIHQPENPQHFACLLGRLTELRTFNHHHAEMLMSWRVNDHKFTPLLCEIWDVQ
Sequence of UniProt P11473 (P11473 whole entry, looked up): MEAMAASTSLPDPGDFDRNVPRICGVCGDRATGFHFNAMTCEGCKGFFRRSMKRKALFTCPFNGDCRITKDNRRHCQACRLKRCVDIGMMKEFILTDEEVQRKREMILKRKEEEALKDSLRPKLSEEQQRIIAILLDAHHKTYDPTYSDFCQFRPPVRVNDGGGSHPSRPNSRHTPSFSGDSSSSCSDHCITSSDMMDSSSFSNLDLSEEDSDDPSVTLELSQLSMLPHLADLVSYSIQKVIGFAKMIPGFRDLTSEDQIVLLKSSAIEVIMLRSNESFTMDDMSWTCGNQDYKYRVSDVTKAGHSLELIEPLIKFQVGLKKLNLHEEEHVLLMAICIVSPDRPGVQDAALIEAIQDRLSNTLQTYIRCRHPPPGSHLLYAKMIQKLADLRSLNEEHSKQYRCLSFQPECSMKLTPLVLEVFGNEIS
Sequence of UniProt Q03181 (Q03181 whole entry, looked up): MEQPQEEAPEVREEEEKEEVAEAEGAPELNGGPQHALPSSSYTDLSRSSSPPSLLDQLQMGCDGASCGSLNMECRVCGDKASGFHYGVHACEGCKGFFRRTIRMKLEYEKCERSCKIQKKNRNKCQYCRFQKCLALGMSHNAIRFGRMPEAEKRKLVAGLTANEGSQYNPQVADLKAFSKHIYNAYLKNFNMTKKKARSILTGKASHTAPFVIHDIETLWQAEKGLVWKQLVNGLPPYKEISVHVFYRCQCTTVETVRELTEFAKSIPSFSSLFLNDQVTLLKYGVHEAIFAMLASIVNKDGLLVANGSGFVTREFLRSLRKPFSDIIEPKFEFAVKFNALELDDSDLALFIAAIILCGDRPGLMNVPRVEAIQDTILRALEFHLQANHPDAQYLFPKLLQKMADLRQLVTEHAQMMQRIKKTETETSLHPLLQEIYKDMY

What does the source list for `O=CC=C(c1ccccc1)c1ccccc1`?
Potency [1]: inconclusive: 61.6 µM [cytotoxic, partial curve]; activation [2]: inconclusive: -17.6% [at 78.9 µM]; Potency [3]: inconclusive: 55.4 µM; Potency [4]: inconclusive: 55.4 µM [cytotoxic, single point]; Potency [5, 19]: active: 43.6 µM; Potency [6]: inconclusive: 46.6 µM; Potency [7]: inconclusive: 55.4 µM [cytotoxic, single point]; ratio activity, negative = inhibition [8]: inconclusive: -24.6% [at 80.4 µM]; Potency [9]: inconclusive: 27.8 µM [cytotoxic, partial curve, poor fit]; Potency [10]: inconclusive: 55.4 µM [activator, single point]; Potency [11]: inconclusive: 24.8 µM [falling, partial curve]; Potency [12]: inconclusive: 62.2 µM [rising, partial curve, poor fit]; Potency [13]: inconclusive: 62.2 µM [rising, partial curve, poor fit]

Which Potency [1] does the source give for `Cc1cc(C)c(N=Nc2c(O)c(S(=O)(=O)O)cc3cc(S(=O)(=O)O)ccc23)cc1C` here?
The Potency was inconclusive: 3.03 µM [cytotoxic, partial curve, poor fit].

What about the ratio activity, negative = inhibition [3] of the same compound?
Its ratio activity, negative = inhibition is inconclusive: -30.1% [at 5.95 µM].

Which Potency [1] does the source give for `NS(=O)(=O)c1cc2c(cc1Cl)NC(C1CC3C=CC1C3)NS2(=O)=O` (stereo unspecified) here?
The Potency was “inactive”.

What about the Potency [2] of the same compound?
Its Potency is “inactive”.

And the ratio activity, negative = inhibition [3]?
Its ratio activity, negative = inhibition is inconclusive: 0.793%.

What about the Potency [14] of the same compound?
Its Potency is “inactive”.

What does the source list for `O=C(CCN1CCN(CCO)CC1)N1c2ccccc2Sc2ccc(C(F)(F)F)cc21`?
Potency [1]: inconclusive: 15 µM [cytotoxic, partial curve, poor fit]; Potency [15]: active: 21.1 µM; activation [5, 19]: inconclusive: 4.47%; Potency [9]: inconclusive: 0.266 µM [rising, full curve, poor fit]

What does the source list for `Cc1ccc(O)c(O)c1`?
Potency [1]: inconclusive: 59.4 µM [cytotoxic, single point]; Potency [15]: inconclusive: 47.2 µM [falling, partial curve, poor fit]; activation [5, 19]: inconclusive: 37.4%; Potency [6]: inconclusive: 16.9 µM; Potency [7]: inconclusive: 42.4 µM [cytotoxic, partial curve]; activation [16]: inconclusive: -0.0476%; Potency [14]: inconclusive: 4.76 µM [cytotoxic, full curve, poor fit]; Potency [8]: inactive; Potency [17, 20]: inconclusive: 42.4 µM [rising, partial curve, poor fit]; activation [12]: inconclusive: -21.9%; Potency [13]: inactive

With `CC(Oc1cc(Cl)ccc1Cl)C(=O)O` (stereo unspecified) as the compound, how does the Potency [1] read?
The Potency was inconclusive: 0.0433 µM [rising, full curve].

What about the Potency [3] of the same compound?
Its Potency is “inactive”.

And the Potency [5, 19]?
Its Potency is inconclusive: 68.6 µM [rising, single point].

What about the Potency [16] of the same compound?
The Potency was inconclusive: 0.616 µM [rising, full curve, poor fit].

And the Potency [9]?
The Potency was “inactive”.

With `CC(=O)Oc1ccccc1C(=O)Nc1ncc([N+](=O)[O-])s1` as the compound, how does the Potency [1] read?
Its Potency is inconclusive: 26.6 µM [cytotoxic, partial curve, poor fit].

What about the Potency [3] of the same compound?
The Potency was inconclusive: 22.3 µM [rising, partial curve] and inconclusive: 16.8 µM [rising, partial curve].

What about the Potency [4] of the same compound?
The Potency was active: 1.58 µM and active: 5.31 µM.

What about the activation [5, 19] of the same compound?
The activation was inconclusive: -1.65%.

What about the activation ([5]; at 73.3 µM (top of the series)) of the same compound?
Its activation is inactive: -3.53%.

And the Potency [18]?
Its Potency is inconclusive: 17.7 µM [cytotoxic, partial curve] and active: 1.19 µM.

What about the Potency [6] of the same compound?
Its Potency is inconclusive: 26 µM.

And the Potency [7]?
The Potency was inconclusive: 19.9 µM [cytotoxic, partial curve].

What about the Potency [16] of the same compound?
The Potency was inconclusive: 33.5 µM [rising, partial curve, poor fit].

What about the Potency [14] of the same compound?
The Potency was inconclusive: 126 nM [cytotoxic, full curve, poor fit] and inconclusive: 21.1 µM [cytotoxic, partial curve].

What about the Potency [8] of the same compound?
Its Potency is inconclusive: 31.5 µM [inhibitor, partial curve, poor fit].

What about the ratio activity, negative = inhibition [8] of the same compound?
The ratio activity, negative = inhibition was inconclusive: -20.8%.

What about the activity change, negative = inhibition [17, 20] of the same compound?
The activity change, negative = inhibition was inconclusive: -8.08%.

And the activity change, negative = inhibition ([17]; at 62.6 µM (top of the series))?
The activity change, negative = inhibition was inactive: -0.0618%.

And the Potency [9]?
Its Potency is inconclusive: 50 µM [cytotoxic, partial curve] and inconclusive: 8.41 µM [cytotoxic, full curve].

And the activation [10]?
Its activation is inconclusive: 0.123% and inconclusive: 0.99%.

And the Potency [11]?
The Potency was inconclusive: 39.7 µM [falling, partial curve] and inconclusive: 15 µM [falling, partial curve].
